Results: a collection of fitness landscapes (doi:10.1126/science.1257360)
This is one part of the list.

B1: PhoQ; a variant is named by its letters at X, in order, P23837 (parent)
chain: MKKLLRLFFPLSLRVRFLLATAAVVLVLSLAYGMVALIGYSVSFDKTTFRLLRGESNLFYTLAKWENNKLHVELPENIDKQSPTMTLIYDENGQLLWAQRDVPWLMKMIQPDWLKSNGFHEIEADVNDTSLLLSGDHSIQQQLQEVREDDDDAEMTHSVAVNVYPATSRMPKLTIVVVDTIPVELKSSYMVWSWFIYVLSANLLLVIPLLWVAAWWSLRPIEALAKEVRELEEHNRELLNPATTRELTSLVRNLNRLLKSERERYDKYRTTLTDLTHSLKTPLXXLQXXLRSLRSEKMSVSDAEPVMLEQISRISQQIGYYLHRASMRGGTLLSRELHPVAPLLDNLTSALNKVYQRKGVNISLDISPEISFVGEQNDFVEVMGNVLDNACKYCLEFVEISARQTDEHLYIVVEDDGPGIPLSKREVIFDRGQRVDTLRPGQGVGLAVAREITEQYEGKIVAGESMLGGARMEVIFGRQHSAPKDE

Variants of: B1
Assay: enrichment ratio after two sorts for PhoP signalling (ratio (wild type AVST 3.29)); higher = more functional
Conditions: with PhoP (E. coli)

Row | Variant | enrichment ratio
1 | HRQN | ≤ 0.25
2 | YNNR | ≤ 0.25
3 | EFFF | ≤ 0.25
4 | PMNR | ≤ 0.25
5 | RKMH | ≤ 0.25
6 | FDFI | ≤ 0.25
7 | YQIV | ≤ 0.25
8 | KNCM | ≤ 0.25
9 | WAHC | ≤ 0.25
10 | FDYY | ≤ 0.25
11 | ENWW | ≤ 0.25
12 | QPMQ | ≤ 0.25
13 | ASMD | ≤ 0.25
14 | VVPG | ≤ 0.25
15 | RCNW | ≤ 0.25
16 | SFYT | ≤ 0.25
17 | PNVF | ≤ 0.25
18 | IEVA | ≤ 0.25
19 | NMGK | ≤ 0.25
20 | NIHN | ≤ 0.25
21 | AKCK | 0.311
22 | WPCH | ≤ 0.25
23 | YRVF | ≤ 0.25
24 | MVIM | ≤ 0.25
25 | TDCG | 13.4
26 | AWTS | ≤ 0.25

Row | Variant | enrichment ratio
27 | GRHL | ≤ 0.25
28 | TQRR | ≤ 0.25
29 | IISP | ≤ 0.25
30 | VHKD | ≤ 0.25
31 | EGCG | ≤ 0.25
32 | MWPN | ≤ 0.25
33 | LYLY | ≤ 0.25
34 | IFWF | ≤ 0.25
35 | IPYR | ≤ 0.25
36 | PDIV | ≤ 0.25
37 | DLRM | ≤ 0.25
38 | DDAM | ≤ 0.25
39 | VSGK | ≤ 0.25
40 | ERPN | ≤ 0.25
41 | WSWA | ≤ 0.25
42 | TGPV | ≤ 0.25
43 | VTNN | ≤ 0.25
44 | NLFE | ≤ 0.25
45 | TFVN | ≤ 0.25
46 | YHLT | ≤ 0.25
47 | ACTM | 11.9
48 | NFPP | ≤ 0.25
49 | GCAA | ≤ 0.25
50 | RNVV | ≤ 0.25
51 | HHHS | ≤ 0.25
52 | NRIA | ≤ 0.25

Row | Variant | enrichment ratio
53 | HNPD | ≤ 0.25
54 | RIER | ≤ 0.25
55 | KKRP | ≤ 0.25
56 | MTCN | ≤ 0.25
57 | VCST | ≤ 0.25
58 | RPEH | ≤ 0.25
59 | TKYD | ≤ 0.25
60 | KTQW | ≤ 0.25
61 | QIQS | ≤ 0.25
62 | IRSL | ≤ 0.25
63 | MCWQ | ≤ 0.25
64 | QCIF | ≤ 0.25
65 | LMEG | ≤ 0.25
66 | EMKK | ≤ 0.25
67 | AKWI | ≤ 0.25
68 | QYEF | ≤ 0.25
69 | KPVE | ≤ 0.25
70 | EIFT | ≤ 0.25
71 | EIYQ | ≤ 0.25
72 | KSQV | ≤ 0.25
73 | NYYH | ≤ 0.25
74 | QHLI | ≤ 0.25
75 | LVHI | ≤ 0.25
76 | VYLE | ≤ 0.25
77 | ESDY | ≤ 0.25
78 | PVAN | ≤ 0.25

Row | Variant | enrichment ratio
79 | MRYC | ≤ 0.25
80 | ALST | 2.76
81 | PTHG | ≤ 0.25
82 | RCIN | ≤ 0.25
83 | NGSM | ≤ 0.25
84 | HSRS | ≤ 0.25
85 | SQTW | ≤ 0.25
86 | WLMV | ≤ 0.25
87 | LNTG | ≤ 0.25
88 | DYYR | ≤ 0.25
89 | QAVY | ≤ 0.25
90 | YYKN | ≤ 0.25
91 | GDRG | ≤ 0.25
92 | WLWG | ≤ 0.25
93 | SQGF | 0.381
94 | SREM | ≤ 0.25
95 | IVTN | ≤ 0.25
96 | TITE | ≤ 0.25
97 | WWPF | ≤ 0.25
98 | YAWC | ≤ 0.25
99 | QNGP | ≤ 0.25
100 | RVTN | ≤ 0.25
101 | GRAL | ≤ 0.25
102 | KPFT | ≤ 0.25
103 | TVCG | 10.1
104 | EATV | ≤ 0.25

Row | Variant | enrichment ratio
105 | VAWD | ≤ 0.25
106 | GHIF | ≤ 0.25
107 | IVGG | ≤ 0.25
108 | PSHQ | ≤ 0.25
109 | KACR | ≤ 0.25
110 | SYVP | ≤ 0.25
111 | DGGT | ≤ 0.25
112 | ETNQ | ≤ 0.25
113 | YFRL | ≤ 0.25
114 | FMEN | ≤ 0.25
115 | DKHH | ≤ 0.25
116 | SYRF | ≤ 0.25
117 | VRIS | ≤ 0.25
118 | YIRQ | ≤ 0.25
119 | RIVK | ≤ 0.25
120 | RSTC | ≤ 0.25
121 | FRIP | ≤ 0.25
122 | VVIV | ≤ 0.25
123 | IYKS | ≤ 0.25
124 | HCDG | ≤ 0.25
125 | TFAY | ≤ 0.25
126 | MMLE | ≤ 0.25
127 | TMCF | ≤ 0.25
128 | NNWN | ≤ 0.25
129 | HTPA | ≤ 0.25
130 | MNVT | ≤ 0.25

Row | Variant | enrichment ratio
131 | TEFY | 3.62
132 | DYMW | ≤ 0.25
133 | DVND | ≤ 0.25
134 | LAAE | ≤ 0.25
135 | MQFD | 14.7
136 | KSQE | ≤ 0.25
137 | QNHP | ≤ 0.25
138 | NGDV | ≤ 0.25
139 | DMRI | ≤ 0.25
140 | RINI | ≤ 0.25
141 | ICDG | ≤ 0.25
142 | FETE | ≤ 0.25
143 | IPLY | ≤ 0.25
144 | VFGH | ≤ 0.25
145 | ALTL | 15.2
146 | AAIG | ≤ 0.25
147 | ELYR | ≤ 0.25
148 | GQSS | ≤ 0.25
149 | DVCD | ≤ 0.25
150 | NLWH | ≤ 0.25
151 | KYGR | ≤ 0.25
152 | MKPS | ≤ 0.25
153 | AWYT | ≤ 0.25
